Results are given in words; binding and its absence hold for the method and conditions named. For part of these data: Binding seen in cells or lysates may run through a third protein. Some binding calls cover weakened binding; strength is not graded here. Where a sequence is shown, tags or fusion partners need not be part of it.

Assay [1] has as its target T1, NPR3 fused with the DNA binding domain (BD) (Arabidopsis) (UniProt Q8L746).
T1 sequence: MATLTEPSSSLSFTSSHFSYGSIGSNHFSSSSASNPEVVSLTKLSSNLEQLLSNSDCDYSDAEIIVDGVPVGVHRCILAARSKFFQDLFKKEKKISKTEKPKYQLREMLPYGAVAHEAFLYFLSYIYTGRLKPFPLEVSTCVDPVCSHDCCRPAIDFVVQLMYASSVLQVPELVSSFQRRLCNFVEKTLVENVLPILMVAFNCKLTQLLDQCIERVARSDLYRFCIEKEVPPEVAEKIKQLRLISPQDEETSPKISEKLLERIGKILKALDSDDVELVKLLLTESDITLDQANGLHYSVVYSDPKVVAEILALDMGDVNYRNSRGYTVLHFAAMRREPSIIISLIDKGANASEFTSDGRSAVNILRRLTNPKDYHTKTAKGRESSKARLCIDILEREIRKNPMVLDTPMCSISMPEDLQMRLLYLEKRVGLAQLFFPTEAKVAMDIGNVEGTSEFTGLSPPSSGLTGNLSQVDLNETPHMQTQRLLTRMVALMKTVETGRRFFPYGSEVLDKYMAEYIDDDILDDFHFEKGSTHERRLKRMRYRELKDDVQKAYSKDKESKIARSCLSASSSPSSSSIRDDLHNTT
The experiment in a line: two-hybrid; AD-JAZ (pGADT7, AH109) mated with BD-NPR3 or its derivatives (pGBKT7, Y187); growth on SD-Leu-Trp-His-Ade plates without SA.

In assay [2] the target is T1, NPR3 fused with the DNA binding domain (BD) (Arabidopsis). The experiment in a line: two-hybrid; AD-JAZ (pGADT7, AH109) mated with BD-NPR3 or its derivatives (pGBKT7, Y187); growth on SD-Leu-Trp-His-Ade plates with 100 μM SA.
For assay [3], the target named is T2, NPR4 fused with the DNA binding domain (BD) (Arabidopsis) (UniProt Q5ICL9).
T2 sequence: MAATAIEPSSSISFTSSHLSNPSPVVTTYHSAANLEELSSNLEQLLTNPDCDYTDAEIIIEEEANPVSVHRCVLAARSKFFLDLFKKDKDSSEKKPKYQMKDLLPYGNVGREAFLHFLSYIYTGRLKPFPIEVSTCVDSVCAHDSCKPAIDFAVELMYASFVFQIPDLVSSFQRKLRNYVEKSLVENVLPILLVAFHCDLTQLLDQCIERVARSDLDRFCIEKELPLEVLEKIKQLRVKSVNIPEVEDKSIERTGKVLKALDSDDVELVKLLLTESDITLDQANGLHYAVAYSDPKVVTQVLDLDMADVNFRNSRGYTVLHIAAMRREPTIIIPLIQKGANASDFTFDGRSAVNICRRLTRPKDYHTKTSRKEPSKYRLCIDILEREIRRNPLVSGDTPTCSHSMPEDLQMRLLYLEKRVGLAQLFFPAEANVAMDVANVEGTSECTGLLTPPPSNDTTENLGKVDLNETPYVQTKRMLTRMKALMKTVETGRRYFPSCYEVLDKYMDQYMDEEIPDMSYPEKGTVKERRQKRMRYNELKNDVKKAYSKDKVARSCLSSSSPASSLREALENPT
The experiment in a line: two-hybrid; AD-JAZ (pGADT7) mated with BD-NPR4 (pGBKT7); SD-Leu-Trp-His-Ade plates without and with 100 μM SA; the text does not tell on which plates each result was seen.

In a further assay the target is T3, NPR3-nLuc (Arabidopsis) (UniProt Q8L746).
T3 sequence: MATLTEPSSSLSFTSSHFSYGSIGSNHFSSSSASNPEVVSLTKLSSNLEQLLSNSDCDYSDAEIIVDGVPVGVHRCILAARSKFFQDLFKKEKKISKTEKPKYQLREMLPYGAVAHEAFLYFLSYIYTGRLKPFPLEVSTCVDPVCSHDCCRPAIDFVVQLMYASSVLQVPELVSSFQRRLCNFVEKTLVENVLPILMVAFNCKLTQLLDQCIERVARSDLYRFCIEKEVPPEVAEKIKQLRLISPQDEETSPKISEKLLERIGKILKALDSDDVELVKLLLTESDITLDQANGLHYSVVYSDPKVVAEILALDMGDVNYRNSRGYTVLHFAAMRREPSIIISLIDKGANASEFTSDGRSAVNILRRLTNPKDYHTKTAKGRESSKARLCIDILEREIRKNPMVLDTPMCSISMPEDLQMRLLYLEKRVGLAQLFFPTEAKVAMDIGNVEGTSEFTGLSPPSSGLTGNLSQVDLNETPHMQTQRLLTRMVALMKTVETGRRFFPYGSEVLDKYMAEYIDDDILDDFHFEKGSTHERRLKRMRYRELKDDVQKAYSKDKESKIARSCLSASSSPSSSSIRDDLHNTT
The experiment in a line: split reporter; split luciferase; cLuc-JAZ and NPR3-nLuc or NPR4-nLuc transiently co-expressed in N. benthamiana leaves for 2 days; 1 mM luciferin; images 0 and 3 h after 1 mM SA treatment.

For the next assay, the target named is T4, NPR4-nLuc (Arabidopsis) (UniProt Q5ICL9).
T4 sequence: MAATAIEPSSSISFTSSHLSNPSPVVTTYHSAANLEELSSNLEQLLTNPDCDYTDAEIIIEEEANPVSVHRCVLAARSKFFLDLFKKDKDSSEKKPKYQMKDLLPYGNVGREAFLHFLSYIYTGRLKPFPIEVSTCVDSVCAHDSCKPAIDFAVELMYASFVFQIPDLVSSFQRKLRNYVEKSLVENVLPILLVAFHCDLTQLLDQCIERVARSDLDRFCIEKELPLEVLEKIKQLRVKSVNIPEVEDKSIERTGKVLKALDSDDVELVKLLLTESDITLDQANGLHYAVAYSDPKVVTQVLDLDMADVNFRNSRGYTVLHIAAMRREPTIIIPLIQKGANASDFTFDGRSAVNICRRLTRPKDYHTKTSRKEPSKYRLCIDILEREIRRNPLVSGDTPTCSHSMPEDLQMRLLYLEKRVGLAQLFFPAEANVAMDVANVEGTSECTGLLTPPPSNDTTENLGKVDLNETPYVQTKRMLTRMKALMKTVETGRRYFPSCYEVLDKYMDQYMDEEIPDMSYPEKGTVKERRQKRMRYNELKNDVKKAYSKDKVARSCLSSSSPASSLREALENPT
The assay is described as above.

B1: JAZ4 fused with the transcriptional activation domain (AD) (protein, UniProt Q58G47 1-310)
chain: MERDFLGLGSKLSPITVKEETNEDSAPSRGMMDWSFSSKVGSGPQFLSFGTSQQETRVNTVNDHLLSSAAMDQNQRTYFSSLQEDRVFPGSSQQDQTTITVSMSEPNYINSFINHQHLGGSPIMAPPVSVFPAPTTIRSSSKPLPPQLTIFYAGSVLVYQDIAPEKAQAIMLLAGNGPHAKPVSQPKPQKLVHHSLPTTDPPTMPPSFLPSISYIVSETRSSGSNGVTGLGPTKTKASLASTRNNQTAAFSMAPTVGLPQTRKASLARFLEKRKERVINVSPYYVDNKSSIDCRTLMSECVSCPPAHHLH
With B1, the binding entry in assay [1], in assay [2] and in assay [3] was “binds” each time.

B2: JAZ4 fused with the C-terminal half of luciferase (cLuc) (protein, UniProt Q58G47 1-310)
chain: MERDFLGLGSKLSPITVKEETNEDSAPSRGMMDWSFSSKVGSGPQFLSFGTSQQETRVNTVNDHLLSSAAMDQNQRTYFSSLQEDRVFPGSSQQDQTTITVSMSEPNYINSFINHQHLGGSPIMAPPVSVFPAPTTIRSSSKPLPPQLTIFYAGSVLVYQDIAPEKAQAIMLLAGNGPHAKPVSQPKPQKLVHHSLPTTDPPTMPPSFLPSISYIVSETRSSGSNGVTGLGPTKTKASLASTRNNQTAAFSMAPTVGLPQTRKASLARFLEKRKERVINVSPYYVDNKSSIDCRTLMSECVSCPPAHHLH
With B2, the binding result with NPR3-nLuc (Arabidopsis) and in the assay with NPR4-nLuc (Arabidopsis) was “binds” throughout.

B3: JAZ9 fused with the transcriptional activation domain (AD) (protein, UniProt Q8W4J8 1-267)
chain: MERDFLGLSDKQYLSNNVKHEVNDDAVEERGLSTKAAREWGKSKVFATSSFMPSSDFQEAKAFPGAYQWGSVSAANVFRRCQFGGAFQNATPLLLGGSVPLPTHPSLVPRVASSGSSPQLTIFYGGTISVFNDISPDKAQAIMLCAGNGLKGETGDSKPVREAERMYGKQIHNTAATSSSSATHTDNFSRCRDTPVAATNAMSMIESFNAAPRNMIPSVPQARKASLARFLEKRKERLMSAMPYKKMLLDLSTGESSGMNYSSTSPT
Regarding B3, the binding entry in assay [1] and in assay [2] was “binds” throughout.

B4: JAZ9 fused with the C-terminal half of luciferase (cLuc) (protein, UniProt Q8W4J8 1-267)
chain: MERDFLGLSDKQYLSNNVKHEVNDDAVEERGLSTKAAREWGKSKVFATSSFMPSSDFQEAKAFPGAYQWGSVSAANVFRRCQFGGAFQNATPLLLGGSVPLPTHPSLVPRVASSGSSPQLTIFYGGTISVFNDISPDKAQAIMLCAGNGLKGETGDSKPVREAERMYGKQIHNTAATSSSSATHTDNFSRCRDTPVAATNAMSMIESFNAAPRNMIPSVPQARKASLARFLEKRKERLMSAMPYKKMLLDLSTGESSGMNYSSTSPT
Consider B4, for which the binding entry with NPR3-nLuc (Arabidopsis) and in the assay with NPR4-nLuc (Arabidopsis) was “binds” in each case.

B5: JAZ10 fused with the transcriptional activation domain (AD) (protein, UniProt Q93ZM9 1-197)
chain: MSKATIELDFLGLEKKQTNNAPKPKFQKFLDRRRSFRDIQGAISKIDPEIIKSLLASTGNNSDSSAKSRSVPSTPREDQPQIPISPVHASLARSSTELVSGTVPMTIFYNGSVSVFQVSRNKAGEIMKVANEAASKKDESSMETDLSVILPTTLRPKLFGQNLEGDLPIARRKSLQRFLEKRKERLVSTSPYYPTSA
As for B5, the results for the binding entry in assay [1] and in assay [2] were “no binding (condition: without SA in the yeast medium)” and “binds”, respectively.

B6: JAZ11 fused with the transcriptional activation domain (AD) (protein, UniProt Q9M246 1-238)
chain: MAEVNGDFPVPSFADGTGSVSAGLDLLVERSIHEARSTEPDASTQLTIIFGGSCRVFNGVPAQKVQEIIRIAFAGKQTKNVTGINPALNRALSFSTVADLPIARRRSLQRFLEKRRDRSTKPDGSMILPSQLTIIFGGSFSVFDGIPAEKVQEILHIAAAAKATETINLTSINPALKRAISFSNASTVACVSTADVPIARRRSLQRFFEKRRHRFVHTKPYSATTSEADKNETSPIVT
On to B6, for which the binding entry in assay [1] is on record as “no binding (condition: without SA in the yeast medium)”; in assay [2] it was “binds”; in assay [3] it was “binds”.

B7: JAZ8 fused with the C-terminal half of luciferase (cLuc) (protein, UniProt Q8LBM2 1-131)
chain: MKLQQNCDLELRLFPTSYDSDSSDTTSVVESTSSGNPQPNEESQRITIFYNGKMCFSSDVTHLQARSIISIASREMKTKSSSNGSDPPNKSTSFHHNQLPNPKASMKKSLQSFLQKRKIRIQATSPYHSRR
For the molecule B7, the binding result with NPR3-nLuc (Arabidopsis) and with NPR4-nLuc (Arabidopsis) was “binds” in each case.

B8: JAZ8 fused with the transcriptional activation domain (AD) (protein, UniProt Q8LBM2 1-131)
chain: MKLQQNCDLELRLFPTSYDSDSSDTTSVVESTSSGNPQPNEESQRITIFYNGKMCFSSDVTHLQARSIISIASREMKTKSSSNGSDPPNKSTSFHHNQLPNPKASMKKSLQSFLQKRKIRIQATSPYHSRR
Regarding B8, the binding entry in assay [1] is reported as “no binding (condition: without SA in the yeast medium)”; in assay [2] it was “binds”.

The record behind these values is PMC5062614.
